# The full ranking holds about 3,600 compounds; the median of “viability index relative to DMSO control” is about 0.81, and the lowest 2% start at about 0.13. Some of the results follow.
# Tested on: Plasmodium falciparum NF54 stage V gametocytes
# Test: viability index relative to DMSO control (fraction); higher = less gametocyte killing
# Conditions: 1.25 µM, incubation time: 72 h
# 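Further: 384-well serum-free SaLSSA: MitoTracker Red CMXRos staining with saponin lysis, high-content imaging, treated-well particle count divided by plate-mean count of DMSO wells.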
row,Structure (SMILES),viability index
1,O=C(NCCc1ccccc1)C(=O)NN=Cc1ccccc1,0.753
2,CCc1ccccc1NC(C)=O,0.784
3,COc1ccccc1C(c1c(C)n[nH]c1O)c1c(C)n[nH]c1O,0.819
4,Cc1oc2c(c1C(=O)N1CCCC1)C(=O)c1ccccc1C2=O,0.583
5,Fc1cccc(Nc2nc(NCC3CCCO3)c3ccccc3n2)c1 (stereo unspecified),0.84
6,CCOc1ccc(NC(=O)C2c3ccccc3C(=O)N(CC(C)C)C2c2cccs2)cc1 (stereo unspecified),0.149
7,CCC(C)C(=O)N1CCC(C(=O)Nc2ccc(-c3nc4ccccc4o3)cc2)CC1 (stereo unspecified),0.798
8,CCOc1ccc(-c2cc(C)[n+](CCO)c(-c3ccc(OCC)cc3)c2)cc1,0.807
9,CCCc1nc2ccc(NC(=O)c3ccco3)cc2c(=O)n1Cc1ccc(-c2ccccc2)cc1,0.824
10,COc1ccc(-n2nc(C(=O)NCC(=O)Nc3nc4ccccc4s3)c3ccccc3c2=O)cc1Cl,0.952
11,O=C(Nc1ccc(F)c(F)c1)c1ccccc1[N+](=O)[O-],1.03
12,O=C(Nc1ccc(-c2nnc(-c3ccccc3)o2)cc1)c1ccc(Br)cc1,0.946
13,O=C(c1ccc([N+](=O)[O-])o1)N1CCN(c2cccc(Cl)c2)CC1,0.468
14,CCCCCOC(=O)C1=C(C)NC2=C(C(=O)CC(C)(C)C2)C1c1ccncc1 (stereo unspecified),0.891
15,COc1ccc2nc(NC(=N)N)nc(C)c2c1,1.14
16,CC(=NNC(N)=S)C(C)=NNC(N)=S,0.27
17,CCn1cc(C(=O)NCCC2=CCCCC2)c(=O)c2cc(S(=O)(=O)N(C)C)ccc21,0.88
18,Cc1ncc(CN2CCC(C(=O)Nc3ccc(-n4cccn4)cc3)CC2)s1,1.04
19,Cc1c(C#N)c2ccccc2n1CC(=O)Nc1ccc(Br)cc1,0.322
20,CN1C(=O)NC(c2cccnc2)C(C(=O)c2cccs2)C1(O)C(F)(F)F (stereo unspecified),0.661
21,N#Cc1c(N)nc(SCC(=O)c2ccc([N+](=O)[O-])cc2)c(C#N)c1-c1ccccc1,1.09
22,CCOc1ccc(C2C(C(=O)OCCc3ccccc3)=C(C)NC3=C2C(=O)CC(C)(C)C3)cc1 (stereo unspecified),0.95
23,N=c1n(CCN2CCCCC2)c2ccccc2n1CC(O)COc1ccc(Cl)cc1 (stereo unspecified),0.746

row,Structure (SMILES),viability index
1,C[n+]1ccccc1C=Cc1ccc(Br)cc1,0.826
2,Fc1ccc(CSc2nc3cccnc3[nH]2)cc1,1.24
3,COc1cccc(CNc2ncnc3sc(C(=O)NCC4COCCO4)c(C)c23)c1OC (stereo unspecified),1.1
4,CCSCCOC(=O)C1=C(C)NC2=C(C(=O)CCC2)C1c1ccc(OC)c(Br)c1 (stereo unspecified),0.604
5,O=C(Cn1nc([N+](=O)[O-])nc1Br)NC1CCCCC1,0.885
6,CCCCc1nc(CN2CCC3(CC2)C(=O)N(CCc2ccccc2)C(=O)N3C)c[nH]1,1.11
7,CC(=NO)c1ccc(NC2=C(N3CCCCC3)C(=O)c3ccccc3C2=O)cc1,0.245
8,COc1cc(C2CC(=O)NC3=C2C(=O)CC(c2ccccc2Cl)C3)ccc1O (stereo unspecified),0.739
9,Cc1cc(Cl)c(S(=O)(=O)N2CCSCC2)cc1OCC(=O)NC1CCCCC1,0.727
10,CCC(C)OC(=O)C1=C(C)NC2=C(C(=O)CC(c3ccc(OC)cc3)C2)C1c1ccc(O)cc1 (stereo unspecified),1.2
11,CCOC(=O)c1c(C)n(-c2ccccc2)c2ccc(OC(=O)c3ccccc3NC(=O)C(C)C)cc12,0.894
12,CCOC(=O)c1c(CNc2ccncc2)n(C)c2cc(Br)c(OC(C)=O)cc12,0.78
13,N[C@@H](COP(=O)(O)O)C(=O)O,0.933
14,COc1ccc(C2(CNCC(O)c3cccc([N+](=O)[O-])c3)CCCC2)cc1OC (stereo unspecified),0.543
15,CSc1nccc(-c2cc(F)cc3c2OC(CNC(=O)C2CC(=O)c4ccccc42)C3)n1 (stereo unspecified),0.731
16,Cc1ccc(-c2cn3c([n+]2-c2ccccc2)SCC3)cc1,0.728
17,COc1ccccc1CNC(=O)c1nn(-c2ccc(Cl)cc2)c(=O)c2ccccc12,0.888
18,COCCCNc1nc2cc(OC)c(OC)cc2c2nc(-c3ccccc3)nn12,0.843
19,Cc1ccc2[nH]c(C(C#N)=Cc3cn(Cc4ccc(Cl)cc4Cl)nc3-c3ccccc3)nc2c1,0.287
20,CCCNC1=C(c2ccc(OC)cc2)C(=O)c2ccccc21,0.731
21,COCCOC(=O)C1=C(C)NC2=C(C(=O)CC(c3ccc(OC)cc3)C2)C1c1ccc(Cl)cc1 (stereo unspecified),0.596
22,CCOc1ccc(C(=O)N2CCN(Cc3ccccc3)CC2)cc1,1
23,CCCCOc1ccc(/C=C(/C#N)c2nc(-c3ccc(-c4ccccc4)cc3)cs2)cc1,0.942

row,Structure (SMILES),viability index
1,COc1ccc(CN2CCN(Cc3ccc(OC)c(C)c3C)C(CCO)C2)c(O)c1 (stereo unspecified),0.971
2,CC(=O)Nc1ccc(NS(=O)(=O)c2cc([N+](=O)[O-])ccc2Cl)cc1,1.03
3,CC(C)CN1C(=O)N(CCCc2cccnc2)C(=O)C12CCN(C1CCOCC1)CC2,1.11
4,O=C(CSc1nnc2c(n1)[nH]c1ccccc12)Nc1ccc([N+](=O)[O-])cc1,0.925
5,O=C1c2ccccc2C2=Nc3ccccc3SC(c3cccc(F)c3)C12 (stereo unspecified),0.417
6,Cc1ccc(-c2nn3c(O)c4c(nc3c2C)CCCC4)cc1,0.609
7,CCOC(=O)c1ccc(NC2=C(N3CCCCC3)C(=O)c3ccccc3C2=O)cc1,0.6
8,Nc1cccc(C(=O)Nc2ccc(Oc3cccc(Oc4ccc(NC(=O)c5cccc(N)c5)cc4)c3)cc2)c1,0.86
9,CCN1CCN(c2c(C(=O)c3ccccc3)cnc3cc(OC)c(OC)cc23)CC1,0.948
10,COc1ccc(Nc2nc(NN=Cc3cc([N+](=O)[O-])ccc3OC)nc(Nc3ccc([N+](=O)[O-])cc3)n2)cc1,0.888
11,COc1cc2nc(NCc3ccccn3)n3nc(-c4ccccc4)nc3c2cc1OC,0.458
12,c1ccc2nc3c(nnc4ccccc43)nc2c1,0.092
13,Oc1c(C(Nc2ccccn2)c2cccc(Oc3ccccc3)c2)ccc2cccnc12 (stereo unspecified),0.884
14,C=CCC1(Nc2ccccc2)CCCCC1,1.14
15,Cc1ccc(C(=O)NC2CCN(S(=O)(=O)c3c(C)cc(C)cc3C)CC2)cc1,0.964
16,CCCc1c(C)nc2ccc(C)cc2c1O,0.822
17,Cn1cc(C=Cc2cc[n+](C)cc2)c2ccccc21,0.848
18,Cc1cc(C)n(-c2ccc(NC(=O)C3CCN(Cc4ccc5nonc5c4)CC3)cc2)n1,0.837
19,O=C(CN1CCN(C(=O)c2ccco2)CC1)Nc1ccccc1Br,0.815
20,CCOC(=O)C1=C(CC)NC2=C(C(=O)CCC2)C1c1ccc(N(C)C)cc1 (stereo unspecified),0.679
21,CCOC(=O)c1ccc2c(c1)[C@@H]1C=CC[C@@H]1[C@H](c1ccc(OC)c([N+](=O)[O-])c1)N2,1.04
22,CCCNC1=C(N(C(C)=O)c2ccc(C)cc2)C(=O)c2ccccc2C1=O,0.0531
23,O=C(Nc1ccc(OC(F)(F)F)cc1)c1cnn2c1NC(c1cccs1)CC2C(F)(F)F (stereo unspecified),0.642

row,Structure (SMILES),viability index
1,Clc1ccc(-n2cc(-c3ccccc3)c3c(N4CCC(Cc5ccccc5)CC4)ncnc32)cc1,1.07
2,Cc1ccccc1OCCSc1nc2ccc(NC(=O)c3cccs3)cc2s1,0.952
3,COc1cc(C=CC(=O)Nc2c3c(nn2-c2ccc(F)cc2)CSC3)cc(OC)c1OC,0.967
4,O=C1C(Nc2cccc(O)c2)=C(N2CCCCC2)C(=O)c2ccccc21,0.661
5,N=C(NN=Cc1cccc([N+](=O)[O-])c1)SC1CC(=O)N(c2cc(Cl)ccc2Cl)C1=O (stereo unspecified),0.685
6,CC(C)CCNC(=O)CN1C(=O)c2cccnc2Oc2ccccc21,0.984
7,COc1ccc2nc(C)cc(Nc3ccc(Oc4ccc5ccccc5c4Cl)c(Cl)c3)c2c1,0.612
8,CCOC(=O)C1=C(C)NC2=C(C(=O)C(C(=O)OCC)C(c3ccccc3OC)C2)C1c1ccc(OC)c(OC)c1 (stereo unspecified),0.39
9,CCOc1ccc(Nc2ccnc3cc(Cl)ccc23)cc1,0.888
10,CCCN1CCN(CCCNC(=O)c2ccc3c(c2)sc2nc(-c4ccc(OC)cc4)cn23)CC1,0.98
11,O=C1N(c2ccccc2)C[C@@H]2C[C@@H](c3ccc4nonc4c3)N3CCC[C@@]123,0.702
12,Cc1cc(C)cc(NCC(O)Cn2c3ccc(Cl)cc3c3cc(Cl)ccc32)c1 (stereo unspecified),0.755
13,COc1ccc2[nH]c3ccccc3c(=O)c2c1,0.385
14,Cc1cc(C)cc(NC2=C(N)C(=O)c3ccccc3C2=O)c1,0.707
15,CCOc1cc2c(cc1OCC)C(c1cc(Cl)ccc1O)NCC2 (stereo unspecified),1.04
16,CCOc1ccc(-c2c[n+](-c3ccccc3)c3n2CCS3)cc1,1.28
17,COc1ccc2[nH]c(SCC(=O)Nc3cccc(NC(=O)CSc4nc5cc(OC)ccc5[nH]4)n3)nc2c1,0.353
18,CCCCCC[n+]1ccccc1C=Cc1ccc(N(C)C)cc1,0.61
19,CCN1CCN(Cc2cc(=O)oc3cc(-c4ccccc4)c(O)cc23)CC1,0.632
20,COc1ccccc1C1CC(c2ccccc2)=NN1C(=O)c1ccccc1 (stereo unspecified),0.416
21,O=C(Nc1cccc(Cl)c1)c1cc2ccccc2cc1O,0.779
22,COc1cc(CNc2ccc(N3CCCCC3)cc2)ccc1OCc1ccccc1F,0.614
